Experimental data as given in PubChem BioAssay AID2147 (National Center for Advancing Translational Sciences (NCATS), 2009).
Hit rate of the full screen: of about 230,000 compounds, about 3,600 (1.6%) were called active. This list was built around the results that the source calls inconclusive (neither active nor inactive); the mix of calls is not that of the screen. Calls come from the whole dose curve; as a rule, active = well fitted inhibition curve with a large enough effect (not every such curve was filed as active); inconclusive = small, poorly fitted or top-dose-only effect, or another doubt; inactive = no such curve, though single readings can be large or run the other way. Potencies of inconclusive entries are doubtful fits and often do not repeat. Where a SMILES comes first, the peptide text is derived from it. The star is where a group is joined. Boc = CC(C)(C)OC(=O)*
Note: nearly all actives have a fitted effect of over 50% in size.
Potency is the fitted concentration of half-maximal effect; tags give direction and shape of the fitted curve.

These compounds were tested against Lysine-specific demethylase 4E (Homo sapiens) (UniProt B2RXH2) (assay: qHTS Assay for Inhibitors of Human Jumonji Domain Containing 2E (JMJD2E)). Conditions: JMJD2E catalytic domain, FDH-coupled NADH fluorescence (FDH is formaldehyde dehydrogenase); series mostly up to 57.1 µM.
UniProt B2RXH2, sequence (B2RXH2 whole entry, looked up, the tested form may be a part): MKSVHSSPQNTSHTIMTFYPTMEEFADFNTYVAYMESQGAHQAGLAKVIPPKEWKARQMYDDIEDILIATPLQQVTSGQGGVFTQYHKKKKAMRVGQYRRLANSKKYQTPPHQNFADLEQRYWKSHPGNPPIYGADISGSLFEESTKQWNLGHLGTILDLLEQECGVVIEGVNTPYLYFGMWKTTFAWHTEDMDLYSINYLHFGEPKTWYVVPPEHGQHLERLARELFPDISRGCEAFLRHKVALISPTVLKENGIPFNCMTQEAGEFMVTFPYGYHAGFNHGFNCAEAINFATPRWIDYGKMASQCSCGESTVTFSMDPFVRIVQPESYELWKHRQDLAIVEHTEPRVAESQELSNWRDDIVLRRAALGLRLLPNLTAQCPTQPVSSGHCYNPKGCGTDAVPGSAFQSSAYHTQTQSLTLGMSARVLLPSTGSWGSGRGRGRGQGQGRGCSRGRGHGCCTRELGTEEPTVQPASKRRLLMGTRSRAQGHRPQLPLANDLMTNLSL
Cc1ncoc1C(=O)N1CCc2c([nH]c3ccccc23)C1c1ccccc1F (stereo not drawn) was tested, and the Potency was “inactive”.
With Cn1c(=O)[nH]c(=O)c2c1nc(N1CCN(Cc3ccccc3)CC1)n2CCCc1ccccc1 the Potency was “inactive”.
For O=c1oc(-c2cccs2)nc2ccc(Cl)cc12, the Potency was inconclusive: 35.5 µM [inhibitor, single point].
With COc1cccc(CN2CCNC(=O)C2CC(=O)NCc2cn3ccc(C)cc3n2)c1OC (stereo not drawn) the Potency was inconclusive: 28.2 µM [inhibitor, partial curve].
For Cc1nc(C/C(=N\N)c2ccc(O)cc2O)cs1, the Potency was inconclusive: 17.8 µM [inhibitor, partial curve].
For CCOc1ccc(Cn2c(O)cc(=O)[nH]c2=O)cc1, the Potency was inconclusive: 39.8 µM [inhibitor, single point].
Cc1ccc(S(=O)(=O)N2CCc3ccccc3C2CC(=O)O)cc1 (stereo not drawn) was tested, and the Potency was “inactive”.
In the case of Cc1ccc(N2C(=O)NC(C(F)(F)F)(C(F)(F)F)C3=C2CC(C)(C)CC3=O)cc1, the Potency is reported as “inactive”.
In the case of Cc1nc2nc[nH]n2c(=O)c1CCC(C)C, the Potency is reported as “inactive”.
In the case of Cc1ccc(OCC(=O)Nc2cccc(-c3nnc(-c4ccccc4)o3)c2)c(C)c1, the Potency is reported as inconclusive: 39.8 µM [inhibitor, single point].
In the case of CC(C)(C)OC(=O)N1CCCC1C(=O)NC(Cc1ccccc1)C(=O)O (stereo not drawn) (Boc-Pro-Phe-OH; configuration not given here), the Potency is reported as inconclusive: 39.8 µM [inhibitor, single point].
In the case of O=C(CCN1C(=O)c2ccc([N+](=O)[O-])cc2C1=O)Nc1ccccc1C(=O)O, the Potency is reported as inconclusive: 39.8 µM [inhibitor, single point].
With CC(=O)Oc1cccc(N2C(=O)C3C(C2=O)C2C=CC3C23CC3)c1 (stereo not drawn) the Potency was “inactive”.
In the case of CC(C)[C@H](NC(=O)c1ccccc1Cl)C(=O)OCc1cc(=O)n2cc(Br)ccc2n1, the Potency is reported as inconclusive: 7.94 µM [inhibitor, full curve].
In the case of COc1ccc(COc2cc(-c3cccc(OC)c3)nc3ccc(NC(=O)c4ccccc4)cc23)cc1, the Potency is reported as inconclusive: 22.4 µM [inhibitor, partial curve].
For COc1ccc2[nH]c(=O)c(CN(Cc3ccccc3)Cc3nnnn3CC3CCCO3)cc2c1 (stereo not drawn), the Potency was inconclusive: 31.6 µM [inhibitor, partial curve].
With O=C(C1=C[C@@H](c2ccc3c(c2)OCO3)C[C@@H](OCCCCO)O1)N1CCOCC1 the Potency was inconclusive: 39.8 µM [inhibitor, single point].
With CCCNC(=O)COC(=O)c1cccnc1Nc1ccccc1F the Potency was inconclusive: 28.2 µM [inhibitor, single point].
